Reference: PubChem BioAssay AID1194 (EPA DSSTox, 2008)
A number of entries come with more than one value. This is not the full list of results. There may be further records.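 How the source made its calls: active means chemicals rated mutagenic or weakly mutagenic in the Salmonella bacterial test by one literature review, or positive overall by another; inconclusive means no clear call, values can overlap the other calls; inactive means the rest.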 The records of an entry are repeats (runs, samples, wells, individuals or studies). Records carry a tag for their origin. A, B and so on number the origins entry by entry.

Tested on: Salmonella typhimurium Ames mutagenicity, literature compiled
Assay: DSSTox (CPDBAS) Carcinogenic Potency Database Salmonella Mutagenicity
Description: The Carcinogenic Potency Database (CPDB) is a unique and widely used international resource of the results of over 6500 chronic, long-term animal cancer tests on over 1500 chemical substances. The CPDB provides easy access to the bioassay literature, with qualitative and quantitative analyses of both positive and negative experiments that have been published over the past 50 years in the general literature and by the National Cancer Institute/National Toxicology Program. The CPDB standardizes the diverse literature of cancer bioassays that vary widely in protocol, histopathological examination and nomenclature, and in the published author's choices of what information to provide in their papers. Results are reported in the CPDB for tests in rats, mice, hamsters, dogs, and nonhuman primates, and are based on the most positive result among all experiments for each sex-species. The DSSTox CPDBAS (all species) file incorporates data from the CPDB Summary Tables for the full list of over 1500 chemical substances tested in at least one species.
A chemical is classified within the CPDB as mutagenic, i.e. "active", in the Salmonella assay if it was evaluated overall as either "mutagenic" or "weakly mutagenic" by Zeiger [Zeiger, E. (1997) Genotoxicity Database. In: Gold and Zeiger, Eds. Handbook of Carcinogenic Potency and Genotoxicity Databases. Boca Raton, FL: CRC Press, pp. 687-729. http://potency.berkeley.edu/CRCbook.html] or as overall "positive" by the EPA Gene-Tox Program [Kier et al. (1986) Mutat. Res. 168: 69-240].

| SMILES | outcome |
| --- | --- |
| C=C(C)CCl | inactive; active [sample A] and active [sample B] |
| CCCCOCCOCCOCc1cc2c(cc1CCC)OCO2 | inactive [sample A] and inactive; active [sample B] |
| Oc1c(Cl)c(Cl)c(Cl)c(Cl)c1Cl | inactive; active [sample A] and inactive [sample B] and inactive [sample C] |
| CC(=O)OC1CC(C)OC(C)O1 (centres undefined) | active [sample A] and active; inactive [sample B] |
